# Source: the antibiotic and cytotoxicity screens of Wong et al. (2023)
# Some of the results follow.
# Tests used:
# HSkMC = human skeletal muscle cells; assay: cytotoxicity call (relative viability < 0.9); conditions: 10 µM
# HepG2 = assay: cytotoxicity call (relative viability < 0.9); conditions: 10 µM
# S. aureus RN4220 = assay: growth inhibition call (relative growth <= 0.2); conditions: 50 µM
Compound,cytotoxicity call (HSkMC),cytotoxicity call (HepG2),growth inhibition call (S. aureus RN4220)
Cc1ccc(S(=O)(=O)N(C)C[C@H]2OCCCC[C@@H](C)Oc3ccc(NC(=O)c4ccccc4)cc3C(=O)N([C@@H](C)CO)C[C@@H]2C)cc1,inactive,inactive,inactive
CNC(=O)C[C@@H]1C[C@@H]2CN(S(=O)(=O)c3cccnc3)C[C@@H]2O1,inactive,inactive,inactive
Cc1noc(C)c1S(=O)(=O)Nc1ccc2c(c1)C(=O)N([C@H](C)CO)C[C@@H](C)[C@H](CN(C)CC1CCCCC1)OCCCC[C@H](C)O2,inactive,inactive,inactive
COc1ccc(-c2cc(=O)c3c(O)c(OC)c(OC4OC(COC5OC(C)C(O)C(O)C5O)C(O)C(O)C4O)cc3o2)cc1 (configuration not stated),inactive,inactive,inactive
C[C@@H]1CN([C@H](C)CO)C(=O)c2cc(NS(C)(=O)=O)ccc2O[C@@H]1CN(C)S(=O)(=O)c1ccc(Cl)cc1,inactive,inactive,inactive
O=C(C[C@@H]1CC[C@H]2[C@@H](COC[C@@H](O)CN2S(=O)(=O)c2ccc(Cl)cc2)O1)NCCN1CCCCC1,inactive,inactive,inactive
NCCCCCNC(=O)[C@@H]1C[C@@H]2C(=O)N[C@@H](CCCCN)C(=O)N2[C@@H]1c1cccc(OCCO)c1,inactive,inactive,inactive
C[C@H](CO)N1C[C@H](C)[C@@H](CN(C)CC2CCOCC2)Oc2ncc(C#Cc3ccc(F)cc3)cc2C1=O,inactive,inactive,inactive
C[C@@H]1CCCCO[C@@H](CN(C)Cc2ccc(Cl)c(Cl)c2)[C@@H](C)CN([C@H](C)CO)C(=O)c2cc(NC(=O)Cc3ccccc3)ccc2O1,active,active,inactive
C[C@@H]1CN([C@@H](C)CO)C(=O)c2cc(NC(=O)CCC(F)(F)F)ccc2O[C@@H](C)CCCCO[C@@H]1CN(C)C(=O)Nc1ccc(C(F)(F)F)cc1,inactive,inactive,inactive
CC1(C)OC(=O)C(OCC2CC2)=C1c1ccc(S(C)(=O)=O)cc1,inactive,inactive,inactive
CC(=O)OC1CCC2(C)C(CCC3C2CC(=O)C2(C)C3CC3OC4(CCC(C)CO4)C(C)C32)C1 (configuration not stated),inactive,inactive,inactive
C[C@H]1CN([C@@H](C)CO)C(=O)c2cc(NC(=O)Cn3cnnn3)ccc2O[C@H]1CN(C)S(=O)(=O)c1cccs1,inactive,inactive,inactive
CC[C@@H]1/C=C(\C)C[C@H](C)C[C@H](OC)[C@H]2O[C@@](O)(C(=O)C(=O)N3CCCC[C@H]3C(=O)O[C@H](/C(C)=C/[C@@H]3CC[C@H](Cl)[C@H](OC)C3)[C@H](C)[C@@H](O)CC1=O)[C@H](C)C[C@@H]2OC,inactive,inactive,inactive
CC(C)C(=O)Oc1ccc(CO)cc1C(CCN(C(C)C)C(C)C)c1ccccc1.O=C(O)C=CC(=O)O (configuration not stated),inactive,active,inactive
C[C@H](CO)N1C[C@H](C)[C@@H](CN(C)Cc2ccc(C(=O)Nc3ccccc3N)cc2)Oc2c(NC(=O)c3nc4ccccc4s3)cccc2C1=O,inactive,active,inactive
CC(C)C[C@](O)(C(=O)OCc1ccc(O[C@@H]2O[C@H](CO)[C@@H](O)[C@H](O)[C@H]2O)cc1)[C@@H](O)C(=O)OCc1ccc(O[C@@H]2O[C@H](CO)[C@@H](O)[C@H](O)[C@H]2O)cc1,inactive,inactive,inactive
CCCN(C)C[C@H]1OCCCC[C@@H](C)Oc2ccc(NC(=O)NC3CCCCC3)cc2C(=O)N([C@@H](C)CO)C[C@H]1C,inactive,inactive,inactive
Cc1ccc(S(=O)(=O)Nc2ccc3c(c2)CC(=O)N([C@H](C)CO)C[C@@H](C)[C@H](CN(C)S(=O)(=O)c2c(C)noc2C)O3)cc1,inactive,inactive,inactive
C[C@@H]1CN([C@H](C)CO)C(=O)c2cc(C#CCN(C)C)cnc2O[C@H]1CN(C)S(C)(=O)=O,inactive,inactive,inactive
N=C(N)Nc1nc(=O)c2ccccc2[nH]1,inactive,inactive,inactive
CO[C@H]1CCN(C(=O)CN(C)C)[C@@H]2CCO[C@@H]12,inactive,inactive,inactive
C[C@H](CO)N1C[C@H](C)[C@@H](CN(C)C(=O)Nc2cccc3ccccc23)OCCCC[C@H](C)Oc2ccc(NS(=O)(=O)c3cccs3)cc2C1=O,active,active,inactive
C[C@@H]1CN([C@@H](C)CO)C(=O)c2cc(C#CCN(C)C)cnc2O[C@@H]1CN(C)C(=O)CCN1CCCCC1,inactive,inactive,inactive
COc1ccc(NC(=O)Nc2ccc3c(c2)C(=O)N([C@H](C)CO)C[C@H](C)[C@H](CN(C)S(=O)(=O)c2ccc(OC)cc2)OCCCC[C@H](C)O3)cc1,inactive,inactive,inactive
Cn1cc(C(=O)N2CCN(CC(N)=O)CC2)c2nn(-c3ccccc3)c(=O)c-2c1,inactive,inactive,inactive
CCS(=O)(=O)Nc1ccc2c(c1)C(=O)N(C)[C@@H]1CC[C@H](CC(=O)NCCCN3CCOCC3)O[C@H]1CO2,inactive,inactive,inactive

Compound,cytotoxicity call (HSkMC),cytotoxicity call (HepG2),growth inhibition call (S. aureus RN4220)
COc1ccc(NC(=O)N(C)C[C@H]2OCCCC[C@@H](C)Oc3ccc(NS(=O)(=O)c4ccc(OC)cc4)cc3C(=O)N([C@@H](C)CO)C[C@@H]2C)cc1,inactive,inactive,inactive
COc1cc([C@@H]2[C@H]3CO[C@@]4(O)C(=O)[C@@H]2C=C([C@H]2Oc5cc(O)cc(O)c5C(=O)[C@@H]2O)[C@@H]34)ccc1O,inactive,inactive,inactive
O=C1c2c(O)cccc2C(C2OC(CO)C(O)C(O)C2O)c2cc(CO)cc(O)c21 (configuration not stated),inactive,active,inactive
C[C@@H]1CN([C@H](C)CO)C(=O)Cc2cc(NC(=O)Nc3ccc4c(c3)OCO4)ccc2O[C@H]1CN(C)Cc1ccc(C(F)(F)F)cc1,active,active,inactive
COCC#Cc1cnc2c(c1)C(=O)N([C@@H](C)CO)C[C@H](C)[C@@H](CN(C)C(=O)Nc1ccc(OC)cc1)O2,inactive,inactive,inactive
C[C@@H]1CN([C@@H](C)CO)C(=O)c2cc(NC(=O)CCC(F)(F)F)ccc2O[C@@H](C)CCCCO[C@@H]1CN(C)S(=O)(=O)c1ccc(F)cc1,inactive,inactive,inactive
C[C@H]1CN([C@@H](C)CO)C(=O)c2cccc(NC(=O)c3ccncc3)c2O[C@H]1CN(C)S(=O)(=O)c1cccs1,inactive,inactive,inactive
Cc1noc(C)c1NC(=O)Nc1ccc2c(c1)C(=O)N([C@H](C)CO)C[C@@H](C)[C@H](CN(C)Cc1ccc(-c3ccccc3)cc1)O2,inactive,inactive,inactive
C[C@H](CO)N1C[C@H](C)[C@@H](CN(C)CC2CC2)Oc2ccc(NS(=O)(=O)c3cccs3)cc2CC1=O,inactive,inactive,inactive
CC(C)(N)c1ccc(F)cc1,inactive,inactive,inactive
COc1ccc2c3c([nH]c2c1)[C@@H](CO)N(Cc1ccc(cc1)Cl)C[C@]13CCN(CCc2ccccc2)CC1,active,active,active
C[C@@H]1CN([C@H](C)CO)C(=O)c2cc(NC(=O)c3ccncc3)ccc2O[C@H]1CN(C)S(=O)(=O)c1cccs1,inactive,inactive,inactive
C[C@H](CO)N1C[C@H](C)[C@@H](CN(C)C(=O)c2cc(-c3ccccc3)on2)OCc2cnnn2CCCC1=O,inactive,inactive,inactive
CNC(=O)C[C@H]1CC[C@@H]2[C@H](COC[C@H](O)CN2C(=O)c2ccccn2)O1,inactive,inactive,inactive
CCCCn1c(-c2ccccc2)nc(-c2ccccc2)c1CN(Cc1ccc2c(c1)OCO2)Cc1ccc2c(c1)OCO2,inactive,inactive,inactive
C[C@H]1CN([C@@H](C)CO)C(=O)c2cc(NS(=O)(=O)c3ccc(F)cc3)ccc2O[C@H]1CN(C)C(=O)Nc1cccc2ccccc12,inactive,inactive,inactive
COc1ccc(Cc2c(O)[nH]c(N)nc2=O)cc1,inactive,inactive,inactive
CCCCC(CC)CCC(CC(C)C)OS(=O)(=O)[O-].[Na+] (configuration not stated),inactive,inactive,inactive
C[C@@H]1CN([C@@H](C)CO)C(=O)c2cc(NC(=O)NC3CCCCC3)ccc2O[C@H]1CN(C)Cc1ccc(-c2ccccc2)cc1,inactive,inactive,inactive
CCCNC(=O)[C@@]1(Sc2ccc(C)cc2)CC(=O)N(Cc2cc(C(F)(F)F)cc(C(F)(F)F)c2)[C@@H]1c1ccc(CO)cc1I,inactive,inactive,inactive
COCCNC(=O)C[C@H]1C[C@H]2c3cc(NS(C)(=O)=O)ccc3O[C@H]2[C@@H](CO)O1,inactive,inactive,inactive
COc1ccc(NC(=O)N(C)C[C@@H]2OCCCC[C@@H](C)Oc3ccc(NS(=O)(=O)c4ccc(OC)cc4)cc3C(=O)N([C@@H](C)CO)C[C@@H]2C)cc1,inactive,inactive,inactive
Cn1cnc(S(=O)(=O)N2C[C@@H](O)COC[C@@H]3O[C@H](CC(=O)NCc4cc(F)cc(F)c4)CC[C@H]32)c1,inactive,inactive,inactive
C=CCN(C(=O)[C@H]1N(c2c(Cl)cccc2CO)C(=O)[C@H]2[C@H](C(=O)O)[C@@H]3C=C[C@@]21O3)c1ccc(OC)cc1,inactive,inactive,inactive
Cc1noc(C)c1NC(=O)Nc1ccc2c(c1)C(=O)N([C@@H](C)CO)C[C@@H](C)[C@H](CN(C)C(=O)Nc1ccc(C(F)(F)F)cc1)O2,inactive,inactive,inactive
C[C@@H]1CN([C@H](C)CO)C(=O)c2cc(NC(=O)Nc3ccc(F)cc3)ccc2O[C@@H](C)CCCCO[C@H]1CN(C)S(=O)(=O)c1ccc(Cl)cc1,inactive,active,inactive
Cc1cc(C(=O)Nc2cccc3c2O[C@@H](CN(C)Cc2ccncc2)[C@@H](C)CN([C@@H](C)CO)C3=O)n(C)n1,inactive,inactive,inactive
